This passage reports binding signal results from article PMC9911399, “Two distinct binding modes provide the RNA-binding protein RbFox with extraordinary sequence specificity”.

Sequences and labels used below:
T1: RBFOX1 RRM (Homo sapiens, UniProt Q9NWB1 109-208)
T1 sequence: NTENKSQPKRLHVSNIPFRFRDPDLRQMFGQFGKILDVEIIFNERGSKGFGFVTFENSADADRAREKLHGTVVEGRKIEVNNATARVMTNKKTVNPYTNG

B1: ACGGGAA (DNA:RNA)
RNA: GGGAGACCGGAAUUCAGAUUGUCCACGGGAAUUAAAUCCCGUCGUAGCCACCA
DNA 1: CAATCTGAATTCCGGTCTCCC
DNA 2: TGGTGGCTACGACGGGATT
B2: CUGAACC (DNA:RNA)
RNA: B1 RNA with A25C, C26U, G28A, G29A, A30C, A31C
DNA 1: CAATCTGAATTCCGGTCTCCC
DNA 2: TGGTGGCTACGACGGGATT
B3: UCAUACG (DNA:RNA)
RNA: B1 RNA with A25U, G27A, G28U, G29A, A30C, A31G
DNA 1: CAATCTGAATTCCGGTCTCCC
DNA 2: TGGTGGCTACGACGGGATT
B4: UGCGCCG (DNA:RNA)
RNA: B1 RNA with A25U, C26G, G27C, G29C, A30C, A31G
DNA 1: CAATCTGAATTCCGGTCTCCC
DNA 2: TGGTGGCTACGACGGGATT
B5: UUAGCUU (DNA:RNA)
RNA: B1 RNA with A25U, C26U, G27A, G29C, A30U, A31U
DNA 1: CAATCTGAATTCCGGTCTCCC
DNA 2: TGGTGGCTACGACGGGATT
B6: ACACGGG (DNA:RNA)
RNA: B1 RNA with G27A, G28C, A30G, A31G
DNA 1: CAATCTGAATTCCGGTCTCCC
DNA 2: TGGTGGCTACGACGGGATT
B7: AACAUCC (DNA:RNA)
RNA: B1 RNA with C26A, G27C, G28A, G29U, A30C, A31C
DNA 1: CAATCTGAATTCCGGTCTCCC
DNA 2: TGGTGGCTACGACGGGATT
B8: CUUUAAC (DNA:RNA)
RNA: B1 RNA with A25C, C26U, G27U, G28U, G29A, A31C
DNA 1: CAATCTGAATTCCGGTCTCCC
DNA 2: TGGTGGCTACGACGGGATT
B9: AAAUAGG (DNA:RNA)
RNA: B1 RNA with C26A, G27A, G28U, G29A, A30G, A31G
DNA 1: CAATCTGAATTCCGGTCTCCC
DNA 2: TGGTGGCTACGACGGGATT
B10: GUCUAUG (DNA:RNA)
RNA: GGGAGACCGGAAUUCAGAUUGUCCGUCUAUGUUAAAUCCCGUCGUAGCCACCA
DNA 1: CAATCTGAATTCCGGTCTCCC
DNA 2: TGGTGGCTACGACGGGATT
B11: UGAGAAC (DNA:RNA)
RNA: B1 RNA with A25U, C26G, G27A, G29A, A31C
DNA 1: CAATCTGAATTCCGGTCTCCC
DNA 2: TGGTGGCTACGACGGGATT
B12: UGGAGCC (DNA:RNA)
RNA: B1 RNA with A25U, C26G, G28A, A30C, A31C
DNA 1: CAATCTGAATTCCGGTCTCCC
DNA 2: TGGTGGCTACGACGGGATT
B13: UCCAUGC (DNA:RNA)
RNA: B1 RNA with A25U, G27C, G28A, G29U, A30G, A31C
DNA 1: CAATCTGAATTCCGGTCTCCC
DNA 2: TGGTGGCTACGACGGGATT
B14: AUGUGCU (DNA:RNA)
RNA: B1 RNA with C26U, G28U, A30C, A31U
DNA 1: CAATCTGAATTCCGGTCTCCC
DNA 2: TGGTGGCTACGACGGGATT
B15: AUAGGGG (DNA:RNA)
RNA: B1 RNA with C26U, G27A, A30G, A31G
DNA 1: CAATCTGAATTCCGGTCTCCC
DNA 2: TGGTGGCTACGACGGGATT
B16: ACUUGUU (DNA:RNA)
RNA: B1 RNA with G27U, G28U, A30U, A31U
DNA 1: CAATCTGAATTCCGGTCTCCC
DNA 2: TGGTGGCTACGACGGGATT
B17: UUACCAU (DNA:RNA)
RNA: B1 RNA with A25U, C26U, G27A, G28C, G29C, A31U
DNA 1: CAATCTGAATTCCGGTCTCCC
DNA 2: TGGTGGCTACGACGGGATT
B18: AGGACUA (DNA:RNA)
RNA: B1 RNA with C26G, G28A, G29C, A30U
DNA 1: CAATCTGAATTCCGGTCTCCC
DNA 2: TGGTGGCTACGACGGGATT
B19: CCUCUAA (DNA:RNA)
RNA: B1 RNA with A25C, G27U, G28C, G29U
DNA 1: CAATCTGAATTCCGGTCTCCC
DNA 2: TGGTGGCTACGACGGGATT
B20: AAAGACC (DNA:RNA)
RNA: B1 RNA with C26A, G27A, G29A, A30C, A31C
DNA 1: CAATCTGAATTCCGGTCTCCC
DNA 2: TGGTGGCTACGACGGGATT
B21: AAGAAAU (DNA:RNA)
RNA: B1 RNA with C26A, G28A, G29A, A31U
DNA 1: CAATCTGAATTCCGGTCTCCC
DNA 2: TGGTGGCTACGACGGGATT
B22: AAAUACC (DNA:RNA)
RNA: B10 RNA with G25A, U26A, C27A, U30C, G31C
DNA 1: CAATCTGAATTCCGGTCTCCC
DNA 2: TGGTGGCTACGACGGGATT
B23: GACACUC (DNA:RNA)
RNA: B10 RNA with U26A, U28A, A29C, G31C
DNA 1: CAATCTGAATTCCGGTCTCCC
DNA 2: TGGTGGCTACGACGGGATT
B24: CCAUAUA (DNA:RNA)
RNA: B10 RNA with G25C, U26C, C27A, G31A
DNA 1: CAATCTGAATTCCGGTCTCCC
DNA 2: TGGTGGCTACGACGGGATT
B25: CCGCAUG (DNA:RNA)
RNA: B10 RNA with G25C, U26C, C27G, U28C
DNA 1: CAATCTGAATTCCGGTCTCCC
DNA 2: TGGTGGCTACGACGGGATT
B26: UCGGAAC (DNA:RNA)
RNA: B1 RNA with A25U, G29A, A31C
DNA 1: CAATCTGAATTCCGGTCTCCC
DNA 2: TGGTGGCTACGACGGGATT
B27: AAUUGAC (DNA:RNA)
RNA: B1 RNA with C26A, G27U, G28U, A31C
DNA 1: CAATCTGAATTCCGGTCTCCC
DNA 2: TGGTGGCTACGACGGGATT
B28: GUUCCAG (DNA:RNA)
RNA: B10 RNA with C27U, U28C, A29C, U30A
DNA 1: CAATCTGAATTCCGGTCTCCC
DNA 2: TGGTGGCTACGACGGGATT
B29: CGGCAGU (DNA:RNA)
RNA: B1 RNA with A25C, C26G, G28C, G29A, A30G, A31U
DNA 1: CAATCTGAATTCCGGTCTCCC
DNA 2: TGGTGGCTACGACGGGATT
B30: AGAAGUU (DNA:RNA)
RNA: B1 RNA with C26G, G27A, G28A, A30U, A31U
DNA 1: CAATCTGAATTCCGGTCTCCC
DNA 2: TGGTGGCTACGACGGGATT
B31: GAUCGCU (DNA:RNA)
RNA: B1 RNA with A25G, C26A, G27U, G28C, A30C, A31U
DNA 1: CAATCTGAATTCCGGTCTCCC
DNA 2: TGGTGGCTACGACGGGATT

Changes are numbered by the printed parent chain; changes in the protein carry UniProt numbers. The list shows a part of the results.

The assay concerns the target T1, RBFOX1 RRM. The experiment in a line: EMSA; HiTS-Eq, 1 nM pool, 10 min; buffer printed only for the single-RNA assays: 10 mM Tris pH 7.5, 150 mM NaCl, 3.4 mM EDTA, 0.001% NP-40, 30 C. As to conditions: tags: His6 N-terminal (pET28a); label: 5' 32P. In a few lines: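 A pool of RNA with 7 randomized nucleotides, 5′-radiolabelled and with DNA-annealed flanks, was equilibrated at 1 nM for 10 min in 50 µL with purified RbFox RRM, wild type or mutant, across increasing protein concentrations. Free RNA was separated by 8% native PAGE, excised, reverse-transcribed, barcoded by PCR and sequenced. Relative association constants were obtained from read-count changes of each RNA species versus the control reaction and normalised to the cognate motif.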
For B1, the binding signal is 0.00621 KA relative to UGCAUGU. B2: the binding signal was 0.00609 KA relative to UGCAUGU. The same measure for B3: 0.0047 KA relative to UGCAUGU.

As to B4, the binding signal is 0.0245 KA relative to UGCAUGU. Consider B5, for which the binding signal was 0.00985 KA relative to UGCAUGU.

Regarding B6, the binding signal was 0.00929 KA relative to UGCAUGU. The figure for B7 is 0.000235 KA relative to UGCAUGU; for B8 it is 0.00844 KA relative to UGCAUGU. The figure for B9 is 0.00393 KA relative to UGCAUGU; for B10 it is 0.01 KA relative to UGCAUGU. On to B11, for which the binding signal was 0.0124 KA relative to UGCAUGU. The same measure for B12: 0.0192 KA relative to UGCAUGU. The same measure for B13: 0.0103 KA relative to UGCAUGU; for B14: 0.0154 KA relative to UGCAUGU. As to B15, the binding signal was 0.00511 KA relative to UGCAUGU.

On to B16, for which the binding signal was 0.0105 KA relative to UGCAUGU.

On to B17, for which the binding signal was 0.00195 KA relative to UGCAUGU.

For the molecule B18, the binding signal was 0.0141 KA relative to UGCAUGU.

On to B19, for which the binding signal is 0.00423 KA relative to UGCAUGU. As to B20, the binding signal was 0.000671 KA relative to UGCAUGU. The same measure for B21: 0.00494 KA relative to UGCAUGU; for B22: 0.00238 KA relative to UGCAUGU.

Consider B23, for which the binding signal was 0.00273 KA relative to UGCAUGU. Regarding B24, the binding signal was 0.00195 KA relative to UGCAUGU. The same measure for B25: 0.806 KA relative to UGCAUGU; for B26: 0.00637 KA relative to UGCAUGU. The figure for B27 is 0.00941 KA relative to UGCAUGU; for B28 it is 0.0134 KA relative to UGCAUGU; for B29 it is 0.0107 KA relative to UGCAUGU. The same measure for B30: 0.00679 KA relative to UGCAUGU; for B31: 0.0137 KA relative to UGCAUGU.
